Consider 86 molecules from PMC4336329 (PLoS ONE, 2015).

The campaign covered roughly 310,000 compounds. About 2,200 (0.71%) showed an effect of 50% or more. Effects have a minus sign here. Some of the results follow.

For this assay, the target named is human ether-à-go-go-related gene (hERG) potassium channel (human, UniProt Q12809). The assay can be described thus: primary screen, population patch clamp on CHO cells stably expressing hERG.
Sequence of human ether-à-go-go-related gene (hERG) potassium channel (Q12809 whole entry, looked up): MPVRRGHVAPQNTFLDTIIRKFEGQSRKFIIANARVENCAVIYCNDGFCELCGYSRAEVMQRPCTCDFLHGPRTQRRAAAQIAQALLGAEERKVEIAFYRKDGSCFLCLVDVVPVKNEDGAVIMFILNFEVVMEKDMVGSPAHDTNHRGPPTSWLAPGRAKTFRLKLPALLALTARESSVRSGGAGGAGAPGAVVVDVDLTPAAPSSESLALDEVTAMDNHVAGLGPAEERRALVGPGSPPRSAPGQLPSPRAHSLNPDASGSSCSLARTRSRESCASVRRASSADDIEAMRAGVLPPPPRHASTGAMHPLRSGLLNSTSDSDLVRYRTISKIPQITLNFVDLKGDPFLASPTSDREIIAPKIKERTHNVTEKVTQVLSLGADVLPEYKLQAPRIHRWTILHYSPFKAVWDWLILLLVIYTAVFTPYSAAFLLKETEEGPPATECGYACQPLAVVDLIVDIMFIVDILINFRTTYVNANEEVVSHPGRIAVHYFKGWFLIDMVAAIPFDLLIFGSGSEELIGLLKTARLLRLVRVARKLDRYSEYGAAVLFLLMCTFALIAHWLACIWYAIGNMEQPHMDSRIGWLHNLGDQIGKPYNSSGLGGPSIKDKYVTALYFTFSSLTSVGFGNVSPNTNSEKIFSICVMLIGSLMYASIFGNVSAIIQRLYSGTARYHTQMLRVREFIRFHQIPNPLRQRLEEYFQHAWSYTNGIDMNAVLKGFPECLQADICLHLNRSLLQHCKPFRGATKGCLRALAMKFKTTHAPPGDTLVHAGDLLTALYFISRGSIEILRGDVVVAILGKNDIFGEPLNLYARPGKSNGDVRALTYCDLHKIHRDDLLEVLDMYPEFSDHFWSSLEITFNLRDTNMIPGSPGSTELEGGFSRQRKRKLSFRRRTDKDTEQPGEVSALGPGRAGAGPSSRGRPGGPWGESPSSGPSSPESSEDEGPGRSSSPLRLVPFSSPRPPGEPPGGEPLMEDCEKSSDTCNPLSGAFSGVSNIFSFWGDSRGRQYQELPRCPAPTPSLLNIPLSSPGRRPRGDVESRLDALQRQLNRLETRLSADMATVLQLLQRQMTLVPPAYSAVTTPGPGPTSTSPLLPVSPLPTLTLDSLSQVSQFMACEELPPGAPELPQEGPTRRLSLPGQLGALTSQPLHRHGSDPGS
With `N#Cc1ccc(C(c2nnnn2C2CCCC2)N2CCC(Cc3ccccc3)CC2)cc1` (centres unmarked), the “hERG current change (%, negative = inhibition) at 1uM” value is on record as 15.1%. For `CN(C)S(=O)(=O)c1cccc(NC(=O)c2c[nH]c3ccccc23)c1` the value was 27%. For `N#CCCN(C(=O)COC(=O)C1CCN(c2ccc(C(F)(F)F)cn2)CC1)c1ccc(F)cc1` the value was -8.24%. To `CC(=O)c1c(C)[nH]c(C(=O)Nc2cccc(C(F)(F)F)c2)c1C` belongs 15.6%; to `CC(C)CCNC(=O)c1cccnc1Sc1ccccc1`, 10.6%; to `COc1ccccc1NC(=O)Cn1nnc(-c2ccccc2NC(=O)c2cccs2)n1`, 1.21%.

For `Cc1nc2cc(C(F)(F)F)ccc2n1CCNc1nc(-c2ccc(F)cc2)cs1`, the “hERG current change (%, negative = inhibition) at 1uM” value was 8.78%. For `COc1ccc(-c2[nH]ncc2/C=N\NS(=O)(=O)c2ccccc2)cc1OC` the value was 11.4%. For `COc1ccccc1NC(=O)c1ccc(NS(=O)(=O)c2ccc(F)c(Cl)c2)cc1` the value was 13.8%; for `O=C(Nc1cccc(F)c1)NC1(C(=O)NCC2CCCO2)CCCCC1` (centres unmarked), 13.3%.

On to `O=C(Nc1cc(Cl)ccc1O)c1cc2n(n1)C(C(F)(F)F)CC(c1ccc3c(c1)OCO3)N2` (centres unmarked), for which the “hERG current change (%, negative = inhibition) at 1uM” value was -5.28%. For `O=C(CCC(=O)c1ccc(Oc2ccccc2)cc1)Nc1ccc(Cl)cc1Cl` the value was 11.4%; for `CC1(c2ccc(Cl)cc2)NC(=O)N(CC(=O)NC(=O)NCc2ccco2)C1=O` (centres unmarked), 12.3%.

`S=C(CN1CCCC1=S)NCCc1ccccc1`: the “hERG current change (%, negative = inhibition) at 1uM” value came to 15.3%. For `NC(=O)CSc1nnc(-c2cccs2)n1Cc1ccco1` the value was 7.15%; for `O=C(CC(NCCc1ccccc1)C(=O)O)Nc1ccc(O)cc1` (centres unmarked), 7.85%; for `CC(C)C[C@H](NC(=O)c1[nH]cnc1C(=O)Nc1ccc(CNC(=O)OC(C)(C)C)cc1)C(=O)OC(C)(C)C`, 16.2%. To `COc1cc2c(C#N)c(N3CCOCC3)nc(N)c2c(N)n1` belongs 3.76%; to `COCC(CN1CCN(C2=NS(=O)(=O)c3ccccc32)CC1)OC(=O)c1ccccc1` (centres unmarked), 2.63%. To `Cc1c(C(=O)N2CCCC2)oc2ccc(Br)cc12` belongs 18%; to `CC1CCCCC1NC(=O)CSc1nnc(COc2ccccc2Cl)o1` (centres unmarked), 9.89%; to `C/C(CC(=O)Nc1ccccc1[N+](=O)[O-])=N\NC(=O)COc1ccccc1C`, 9.65%. Turning to `CCn1c(=N)c(S(=O)(=O)c2ccc(F)cc2)cc2c(=O)n3ccccc3nc21`, the “hERG current change (%, negative = inhibition) at 1uM” value turned out to be 2.31%.

As for `CC(C)(C)c1ccc(C(=O)C2CCCN(C3CCC3)C2)cc1` (centres unmarked), the “hERG current change (%, negative = inhibition) at 1uM” value is given as 10.7%. For the molecule `CN(C(=O)CSc1nnc(CNC(=O)c2ccccc2)o1)c1ccccc1`, the “hERG current change (%, negative = inhibition) at 1uM” value amounted to 1.84%. To `COc1cc(/C=N/Nc2snc(SC)c2C#N)cc(OC)c1OC` belongs 9.86%; to `COc1ccc(NC(=O)CN2CCN(CC(=O)Nc3ccc(OC)c(OC)c3)CC2)cc1`, -66.1%. As to `O=C(c1ccc(C#CC2(O)CCCCC2)cc1)N1CCOCC1`, the “hERG current change (%, negative = inhibition) at 1uM” value was 12.6%. Regarding `CCCC(C)c1nnc(NC(=O)CCS(=O)(=O)Cc2ccccc2)s1` (centres unmarked), the “hERG current change (%, negative = inhibition) at 1uM” value is recorded as 5.62%. In the case of `CCOC(=O)Cc1csc(NC(=O)c2cc(OC)cc(OC)c2)n1`, the “hERG current change (%, negative = inhibition) at 1uM” value was 5.15%. For `CCOc1ccc(S(=O)(=O)NCc2cccnc2)cc1NC(=O)c1ccccc1F` the value was 12.7%; for `CN(C)S(=O)(=O)c1ccc(C(=O)OCC(=O)Nc2sc3c(c2C#N)CCCCC3)cc1`, 10.6%. For `COc1ccc(OC)c(Cc2nnc(CCC(=O)N3CCC(N4CCCCC4)CC3)o2)c1` the value was 8.67%; for `NC(=O)c1cc(C(=O)c2ccc(Cl)cc2Cl)c[nH]1`, 14.3%. As for `CNc1cc([N+](=O)[O-])ccc1N/C=C/C(=O)c1cccs1`, the “hERG current change (%, negative = inhibition) at 1uM” value was 7.39%. For the molecule `O=C(Nc1nnc(CSCc2ccccc2F)s1)c1cccc([N+](=O)[O-])c1`, the “hERG current change (%, negative = inhibition) at 1uM” value was determined as 9.52%.

Consider `O=C(NC(=S)Nc1ccc(N2CCCC2)cc1)c1ccccc1[N+](=O)[O-]`, for which the “hERG current change (%, negative = inhibition) at 1uM” value turned out to be 3.53%.

For `CC(C)c1nnc(NC(=O)CN(C)S(=O)(=O)c2ccc3c(c2)OCCO3)s1`, the “hERG current change (%, negative = inhibition) at 1uM” value came to 13.5%.

`O=C1CC(c2ccsc2)c2cc3c(cc2N1)OCCO3` (centres unmarked): the “hERG current change (%, negative = inhibition) at 1uM” value was found to be 4.2%.

With `Cn1c(=O)c([N+](=O)[O-])c(-n2ccnc2)c2ccccc21`, the “hERG current change (%, negative = inhibition) at 1uM” value is given as -2.1%. Turning to `c1ccc(CCN(Cc2ccccc2)Cc2nc(C3CC3)no2)cc1`, the “hERG current change (%, negative = inhibition) at 1uM” value was determined as 1.72%.

For `COc1ccc(CN(C)CCc2ccccn2)c(OC)c1OC.O=C(O)C(=O)O`, the “hERG current change (%, negative = inhibition) at 1uM” value is given as -15.2%.

Turning to `COC(=O)c1cnn(-c2ccccc2)c1-n1cccc1C=O`, the “hERG current change (%, negative = inhibition) at 1uM” value worked out at 8.55%. To `CCOc1ccc(CC(=O)N2CCC3(CC2)NCCc2[nH]cnc23)cc1` belongs 17.2%; to `CCCC[C@H](CC(=O)c1ccccc1)[C@@H](OC(C)=O)C(=O)Oc1c(C(C)C)cccc1C(C)C`, 2.89%. On to `COC(=O)CCC(=O)OC1(C)C(=O)C2=CN(Cc3ccc(OC)cc3)C(c3ccc(OC)cc3)=CC2=C(Br)C1=O` (centres unmarked), for which the “hERG current change (%, negative = inhibition) at 1uM” value is -0.172%. Turning to `Oc1ccccc1Oc1c(F)c(F)nc(N2CCCC2)c1F`, the “hERG current change (%, negative = inhibition) at 1uM” value is recorded as 5.33%.

Take `O=C(CCc1ccccc1)NNc1ccc(F)cc1`: the “hERG current change (%, negative = inhibition) at 1uM” value stood at 15.1%.

Turning to `COc1ccc(CCNC(=O)c2oc3ccc(S(=O)(=O)N4CCOCC4)cc3c2C)cc1OC`, the “hERG current change (%, negative = inhibition) at 1uM” value is on record as 5.88%.

Consider `COc1cc(C2N(c3ccccc3)CCN2c2ccccc2)cc(OC)c1OC`, for which the “hERG current change (%, negative = inhibition) at 1uM” value was determined as 16.7%. For `N#Cc1c2n(cnc1=O)CCCCC2` the value was 16.9%; for `COc1ccc(NC(=O)CCC(=O)OCC(=O)c2ccc(Oc3ccc([N+](=O)[O-])cc3)cc2)cc1`, 13.7%; for `CC(C)Sc1nnc([C@H](C)NC(=O)OC(C)(C)C)o1`, -6.28%. For `CCOC(=O)C1CCN(C(=O)CNC(=O)c2nn(-c3ccc(OC)c(Cl)c3)c(=O)c3ccccc23)CC1` the value was -4.01%; for `O=C(Nc1cc(F)ccc1F)C1CCN(S(=O)(=O)c2cccc3nonc23)CC1`, 12.6%; for `COC(=O)/C=C/c1oc2ccccc2c1C`, 7.18%. Take `Clc1ccc(SCc2cn3cccnc3n2)cc1`: the “hERG current change (%, negative = inhibition) at 1uM” value is listed as -3.32%. Take `CC(=O)Nc1nonc1NC(=O)CSC1=NCCS1`: the “hERG current change (%, negative = inhibition) at 1uM” value is 14.7%. Turning to `COC(=O)c1nc2nc(C)cc(=O)n2[nH]1`, the “hERG current change (%, negative = inhibition) at 1uM” value was 18.9%. For the molecule `COc1ccc(CC(=O)NCCc2cnc[nH]2)cc1`, the “hERG current change (%, negative = inhibition) at 1uM” value stood at 14.1%.

Take `COC(=O)COc1ccc(C(C2C(=O)CC(C)(C)CC2=O)C2C(=O)CC(C)(C)CC2=O)cc1`: the “hERG current change (%, negative = inhibition) at 1uM” value is 10.9%. For `Cc1c(C#N)c2ccccc2n1CC(=O)NCC1CCCO1` (centres unmarked), the “hERG current change (%, negative = inhibition) at 1uM” value was 14.8%. Regarding `Br.COc1ccc(-c2cn3c(n2)CCC3)cc1`, the “hERG current change (%, negative = inhibition) at 1uM” value is reported as 3.61%. As for `O=C(NCC(=O)N1CCN(c2ccccc2O)CC1)c1cccs1`, the “hERG current change (%, negative = inhibition) at 1uM” value worked out at 9.72%. To `CSc1nnc2c(n1)OC(c1ccccn1)N(C(C)=O)c1ccccc1-2` (centres unmarked) belongs 12.6%.

Turning to `Cc1cccc(N2CCN(C(=O)c3ccc(NC(=O)C4CCCO4)cc3)CC2C)c1` (centres unmarked), the “hERG current change (%, negative = inhibition) at 1uM” value is recorded as 11.1%. To `COc1ccc([N+](=O)[O-])cc1NS(=O)(=O)c1ccc(C)cc1` belongs 3.48%; to `Cc1ccc(C)c(N2CCN(S(=O)(=O)c3ccc4[nH]c(=O)c(=O)[nH]c4c3)CC2)c1`, 8.34%; to `Cc1ccc(OCC(=O)O)c(-n2nc3ccccc3n2)c1`, 10.3%. For `Nc1nonc1OCCCCOc1nonc1N` the value was 11.7%; for `Cc1ccc(S(=O)(=O)CC(=O)N(CCCN(C)C)c2nc3ccc(C)cc3s2)cc1.Cl`, 7.03%; for `O=C(CN(C(=O)C1CSC(=O)C1)c1ccc(F)cc1)NCc1ccc2c(c1)OCO2` (centres unmarked), 16.9%.

In the case of `Nc1nnc(SCC(=O)OCC(=O)c2ccccc2Br)s1`, the “hERG current change (%, negative = inhibition) at 1uM” value came to 2.47%. To `CN1N=C(C(=O)NC2CCCc3c2cnn3-c2ccc(F)cc2F)CCC1=O` (centres unmarked) belongs 6.91%; to `Cc1ccc(CNC(=O)Cn2c([N+](=O)[O-])cnc2C)cc1`, 8.72%; to `CCOc1ccccc1NC(=O)Cn1ncc2ccc([N+](=O)[O-])cc21`, 0.811%.

Take `CCc1ccc(-c2cc(C)no2)cc1S(=O)(=O)N1CCN(c2cccc(C)c2C)CC1`: the “hERG current change (%, negative = inhibition) at 1uM” value came to 11.8%. To `Cc1ccc(C)c(N2CCN(CC3CC=CCC3)CC2)c1` (centres unmarked) belongs 12.5%; to `COc1ccccc1CN1C[C@@H]2C[C@@H](c3ccccc3C)N3CCC[C@@]23C1=O`, 16.2%. To `O=C(CN1C(=O)NC2(CCCCCC2)C1=O)NC1CCCCCCC1` belongs 14.5%. In the case of `CC[C@H](C)Cc1cn([C@@H](CCCCNC(=O)OC(C)(C)C)C(=O)NCCCCCCCCCCC(=O)N2CCN(C(=O)OC(C)(C)C)CC2)nn1`, the “hERG current change (%, negative = inhibition) at 1uM” value is -3.45%. Take `O=S1(=O)N=CN(Cc2cccc(F)c2)c2ccccc21`: the “hERG current change (%, negative = inhibition) at 1uM” value was 4.93%. As to `O=C1N=C(N2CCC(Cc3ccccc3)CC2)S/C1=C/c1cn[nH]c1-c1ccccc1`, the “hERG current change (%, negative = inhibition) at 1uM” value worked out at 4.02%. To `CCCCCc1cc(=O)[nH]c(=S)[nH]1` belongs 14.8%; to `COC(=O)c1ccc(Cl)cc1NC(=O)/C=C/c1ccc(C)o1`, 5.25%; to `COC(=O)c1[nH]c2ccc(C)cc2c1NC(=O)CN1CCN(C(=O)c2ccccc2)CC1.Cl`, -1.98%.
